# The campaign covered roughly 310,000 compounds. About 14,000 (4.5%) showed an effect of 50% or more. The effect is printed as a negative number. Some of the results follow.
# Target: human ether-à-go-go-related gene (hERG) potassium channel (human, UniProt Q12809)
# Assay: primary screen, population patch clamp on CHO cells stably expressing hERG
# 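Also: peak tail current of the secondary pulse compared with the same well before compound.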
# Chain of human ether-à-go-go-related gene (hERG) potassium channel (Q12809 whole entry, looked up): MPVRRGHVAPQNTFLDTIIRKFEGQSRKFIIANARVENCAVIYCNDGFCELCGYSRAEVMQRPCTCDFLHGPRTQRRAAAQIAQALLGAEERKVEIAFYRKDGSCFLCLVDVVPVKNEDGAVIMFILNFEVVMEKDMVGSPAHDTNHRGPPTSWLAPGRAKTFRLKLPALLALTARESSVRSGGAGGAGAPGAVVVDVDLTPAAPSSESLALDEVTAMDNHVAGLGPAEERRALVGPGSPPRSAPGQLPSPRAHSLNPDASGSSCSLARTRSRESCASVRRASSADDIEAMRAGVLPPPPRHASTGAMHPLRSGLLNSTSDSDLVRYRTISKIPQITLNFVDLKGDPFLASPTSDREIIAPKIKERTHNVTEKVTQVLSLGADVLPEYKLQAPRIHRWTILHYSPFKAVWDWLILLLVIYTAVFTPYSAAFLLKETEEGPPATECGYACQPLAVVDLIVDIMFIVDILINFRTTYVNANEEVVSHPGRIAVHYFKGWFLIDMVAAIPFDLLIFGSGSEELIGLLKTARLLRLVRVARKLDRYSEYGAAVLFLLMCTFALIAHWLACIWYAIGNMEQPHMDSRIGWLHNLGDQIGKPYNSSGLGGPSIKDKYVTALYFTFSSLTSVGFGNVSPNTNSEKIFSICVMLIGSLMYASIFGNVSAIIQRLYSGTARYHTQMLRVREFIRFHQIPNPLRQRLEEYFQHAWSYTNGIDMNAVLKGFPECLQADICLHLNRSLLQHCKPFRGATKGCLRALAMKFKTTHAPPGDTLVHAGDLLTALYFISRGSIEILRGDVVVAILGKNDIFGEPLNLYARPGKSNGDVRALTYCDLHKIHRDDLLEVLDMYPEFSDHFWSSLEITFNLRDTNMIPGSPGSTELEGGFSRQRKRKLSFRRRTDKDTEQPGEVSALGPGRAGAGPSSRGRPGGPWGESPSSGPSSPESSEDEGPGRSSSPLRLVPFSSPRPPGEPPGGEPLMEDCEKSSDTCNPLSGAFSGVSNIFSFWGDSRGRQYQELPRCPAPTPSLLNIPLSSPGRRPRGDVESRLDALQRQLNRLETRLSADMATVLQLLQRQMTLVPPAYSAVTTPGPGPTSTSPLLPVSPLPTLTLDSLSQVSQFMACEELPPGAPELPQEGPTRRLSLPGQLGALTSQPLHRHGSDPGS
row,SMILES,"hERG current change (%, negative = inhibition) at 10uM [%]"
1,O=C(NCc1ccccc1)c1ccc(N2C(=O)C3CCCCC3C2=O)cc1 (stereo not shown),7.98
2,COc1ccc(C(=O)N2CCN(C3CCN(Cc4ccccc4)CC3)CC2)cc1OC,-42.8
3,COC(=O)COc1ccc(C2NC(=O)NC(C)=C2C(=O)NCc2ccccc2)cc1OC (stereo not shown),-2.92
4,CCOC(=O)c1c(-c2ccc(C)o2)csc1NC(=S)NC(=O)c1ccc(F)cc1,2.75
5,CCOC(=O)N1CCN(C(=O)CCCn2c(=S)[nH]c3ccc(Br)cc3c2=O)CC1,-46.7
6,N#Cc1cc2c(nc1SCc1ccncc1)CCC2,-21.9
7,CCC(C)N(C(=O)COC(=O)CCc1c[nH]c2ccccc12)C1CCS(=O)(=O)C1 (stereo not shown),-10.4
8,CCCOc1ccc(S(=O)(=O)N2CCCC2)cc1[N+](=O)[O-],-30.1
9,CCOC(=O)C(CC)Sc1ccc2nnc(-c3cccnc3)n2n1 (stereo not shown),-47.7
10,N#C/C(=C\c1ccc(OCc2ccccc2)cc1)C(=O)Nc1ccc(C(=O)O)cc1,8.19
11,Cc1nc2nc(SCC(=O)NCCCN3CCCC(C)C3)nn2c(C)c1Cc1ccccc1Cl (stereo not shown),2.15
12,Cc1ccc(NC(=S)NCCc2ccc(S(N)(=O)=O)cc2)cc1C,-7.61
13,COc1ccccc1NC(=O)C1=C(C)NC(=O)NC1c1ccccc1F (stereo not shown),2.86
14,CCCn1c(Nc2cccc(OC)c2)nc2ccccc21,14.8
15,CC1CCCCC12NC(=O)N(CC(=O)NC1CCCc3ccccc31)C2=O (stereo not shown),0.596
16,N#Cc1ccccc1CSc1nc2ccsc2c(=O)n1Cc1ccccn1,-10.9
17,C=CCn1c(N2CCCC2)nc2c1c(=O)n(C)c(=O)n2C,10.3
18,CC(/C=C\C=C\c1ccccc1)=N\NC(=O)c1cncc(Br)c1,0.6
19,COCCCNc1nc2c(c(=O)[nH]c(=O)n2C)n1CC(O)COc1ccccc1C (stereo not shown),-7.62
20,O=C(CCc1nnc(-c2ccc(-c3ccccc3)cc2)o1)N1CCCCC1,-4.15
21,Cc1ccc(NC(=O)/C(=C\c2cccnc2)NC(=O)c2ccccc2)cc1,-46
22,CCOC(=O)N1CCN(C(=O)c2ccccc2SCC(=O)NCC2CCCCC2)CC1,-27.9

row,SMILES,"hERG current change (%, negative = inhibition) at 10uM [%]"
1,O=C(CCCc1nc(-c2ccc(Cl)cc2)no1)NC1CCCCC1,20.2
2,COc1cc(/C=C/c2nc3ccccc3c(=O)[nH]2)ccc1OC(F)F,11.3
3,CCCn1c(O)c(/C=C2\C=NN=C2c2ccccc2)sc1=S,7.93
4,CN(C)/C=C1/C=C(c2ccccc2)OC1=O,12
5,Cc1cnn(-c2cc(Oc3ccccc3)ncn2)c1,-11.8
6,O=C(C1CCN(S(=O)(=O)N2CCOCC2)CC1)N1CCOCC1,-6.69
7,O=C(/C=C/c1ccccc1)Nc1cccnc1Oc1ccccc1F,-1.99
8,Cc1nc(CN(C)C(=O)c2cc(COc3c(F)cccc3F)on2)cs1,11.5
9,CCN1/C(=C/C=C/C=C/C=C/c2sc3ccccc3[n+]2CC)Sc2ccccc21.[I-],-49.5
10,CCC(=O)Nc1ccccc1C(=O)OCC(=O)Nc1ccc(S(N)(=O)=O)cc1,-2.28
11,COCCCNC(=S)NC(=O)c1ccc([N+](=O)[O-])cc1,-8.65
12,CCc1cc(=O)oc2cc(OC(=O)c3ccco3)ccc12,15.5
13,COc1cccc(N2CCN(S(=O)(=O)c3ccc4nc(-c5ccccc5)[nH]c4c3)CC2)c1,12.2
14,CCOC(=O)C1(Cc2cccc(Cl)c2)CCCN(C(=O)c2c(CC)noc2C)C1 (stereo not shown),-16.2
15,COc1ccc(C(C(=O)NC2CCCC2)N(CCC(C)C)C(=O)CCC(=O)Nc2cc(C)on2)cc1 (stereo not shown),-15.9
16,COc1ccc(NC(=O)/C=C/c2cc(Br)ccc2OC)cc1,20
17,Cc1onc(-c2ccccc2)c1C(=O)Nc1nnc(CC(C)(C)C)s1,10
18,CCN(CC)C(=O)CSc1nc(N)c(-c2ccccc2)c(=O)[nH]1,8.53
19,CS(=O)(=O)N(CC(=O)NCC1CCCO1)c1cc(Cl)ccc1Cl (stereo not shown),9.81
20,O=C(CCC(=O)OCCCC(F)(F)C(F)(F)F)Nc1ccccc1,13.5
21,Cc1[nH]n(-c2ccc([N+](=O)[O-])cc2)c(=O)c1C=NCCc1c(C)[nH]c2ccccc12,1.38

# — PMC4336329 (PLoS ONE, 2015)
